Laboratory results taken from PubChem BioAssay AID463173 (ICCB-Longwood Screening Facility, Harvard Medical School, 2010).
The whole screen tested about 52,000 compounds, of which about 1,700 (3.3%) were called active. Rule as the data show it: active = survival mostly below about 52% (no sharp cut-off); inactive = mostly above about 56%. The list shows a part of the results.

system: Wild type; test: S. aureus survival, RN4220 and DeltatarO strains – OD600, teichoic acid synthesis inhibitors, primary screen (AID 463173); conditions: S. aureus RN4220 wild type/DeltatarO growth, OD600, 18 h, hits give low values, screened at 18.75 µg/mL (by protocol)

Compound | survival
COc1ccc(CCNC(=O)NCc2noc3ccccc23)c(OC)c1 | inactive: 89%
CC(=O)NS(=O)(=O)c1ccc(NC(=O)c2ccco2)cc1 | inactive: 103%
COc1cccc(-c2nnc3n(Cc4ccc(F)cc4)c(=O)c4ccccc4n23)c1 | inactive: 81%
COc1cc(NC(=O)c2noc3c2CCc2ccccc2-3)cc(OC)c1OC | inactive: 82%
Cc1ccc(-c2noc(CN(C3CCCCC3)S(=O)(=O)c3ccc(C)cc3)n2)cc1 | inactive: 85%
Cc1nn(-c2ccc3nncn3n2)c(C)c1CCC(=O)Nc1ccc(OC(F)(F)F)cc1 | inactive: 99%
COc1cc(C(=O)NCC(c2cccnc2)N2CCN(c3ccc(F)cc3)CC2)cc(OC)c1OC (centres undefined) | inactive: 85%
Cc1cccc(-c2nc3c(C#N)c[nH]n3c2NC2CCCCC2)c1 | inactive: 59%
Cc1ccccc1CNC(=O)c1ccc(-n2c(C)cc3c2CCCC3)cc1 | inactive: 127%
COc1cccc(CC(NC(C)=O)C(=O)NC2CCN(c3nc(C)cc(C)n3)CC2)c1OC (centres undefined) | inactive: 112%
COc1ccccc1CNC(=O)C1CCN(Cc2nc(-c3ccc(OC)c(OC)c3)oc2C)CC1 | inactive: 123%
Cc1ccc(OCCn2c(-c3ccc(Cl)cc3)nc3ccccc3c2=O)c(C)c1 | inactive: 68%
c1ccc(CCn2nnnc2CN2CCCc3ccccc32)cc1 | inactive: 112%
CCCN(C(=O)c1cc2c(Cl)nc3ccccc3c2s1)c1cccc(C)c1 | active: 1%
COCCNC(=O)c1ccc(Cn2c(SCC(=O)NC(C)C)nc3ccccc3c2=O)cc1 | inactive: 79%
CCCN(CCC)C(=O)Cn1c(=O)n(Cc2ccc(C(=O)NCCc3ccc(OC)c(OC)c3)cc2)c(=O)c2ccccc21 | inactive: 135%
CCOc1cc(CNc2ccc(O)cc2)cc(Br)c1OCc1ccccc1 | active: -5%
COc1ccc(CNC(=O)c2ccc3c(c2)N(Cc2ccccc2)C(=O)c2ccccc2S3(=O)=O)cc1 | inactive: 87%
COc1ccc(-c2cc3nc(C4CCN(C(=O)OC(C)(C)C)CC4)c(C(=O)Nc4cc(Cl)cc(Cl)c4)cn3n2)cc1 | inactive: 80%
CCOc1ccccc1N(C)C(=O)c1nn(-c2ccc(C)cc2)c(=O)c2c1c1ccccc1n2C | inactive: 135%
COc1ccc(OC)c(NC(=O)c2csnn2)c1 | inactive: 86%
COCCCNC(=O)c1cc(-c2cccnc2)nc2ccccc12 | inactive: 118%
CCOc1ccccc1-c1nnc(SCc2ccc(Cl)cc2)o1 | active: -14%

Compound | survival
COc1ccc(-n2c(SCC(=O)N3CCC(C)CC3)nc3c([nH]c4ccccc43)c2=O)cc1 | inactive: 79%
CC1=C(C(=O)Nc2ccc(C)cc2C)C(c2sccc2C)n2ncnc2N1 (centres undefined) | inactive: 74%
CCc1nnc(SCC(=O)Nc2ccc3c(c2)OCO3)n1CC1CCCO1 (centres undefined) | inactive: 116%
CCOc1cccc(C2c3c(oc4ccccc4c3=O)C(=O)N2c2nc(C)c(C(=O)OC)s2)c1 (centres undefined) | inactive: 66%
OC(COCc1ccccc1)CN1CCCC1 (centres undefined) | inactive: 108%
Cc1ccc2occ(CC(=O)Nc3nnc(C(C)C)s3)c2c1 | inactive: 91%
O=C(Nc1nnc(S(=O)(=O)N2CCCc3ccccc32)s1)c1ccccc1Br | inactive: 27%
Cc1ccc(CNC(=O)CCCCn2c(=O)c3ccccc3n(Cc3ccc(Cl)cc3)c2=O)cc1 | inactive: 119%
Cc1nc2sc(C(=O)NCc3ccc(Cl)cc3)c(NC(=O)c3ccccc3)c2c(C)c1C | inactive: 86%
Cc1ccc(-n2ncc(C(=O)Nc3ccc(C)c(F)c3)c2C2CCN(C(=O)OC(C)(C)C)CC2)cc1C | inactive: 127%
CCOc1cc(C2c3c(oc4ccccc4c3=O)C(=O)N2Cc2ccc3c(c2)OCO3)ccc1O (centres undefined) | inactive: 90%
COc1cccc(N2CCN(c3nc4ccc(C(=O)c5ccccc5)cc4n4c(C)nnc34)CC2)c1 | inactive: 75%
Cc1ccc(NC(=O)Cn2c(CCC(=O)O)ccc2-c2cccs2)cc1 | inactive: 86%
CCC(C(=O)OCc1cc(=O)n2nc(CCOC)sc2n1)c1ccccc1 (centres undefined) | inactive: 136%
Cc1ccccc1NC(=O)c1nc(-c2ccncc2)no1 | inactive: 85%
O=C(Cn1cc(/C=N/NC(=S)Nc2ccccc2)c2ccccc21)NCc1ccco1 | inactive: 117%
Cc1ccc(NC(=O)NCc2cccn2Cc2ccccc2)cc1F | inactive: 75%
Cc1ccc(-c2cn3c(n2)sc2cc(C(=O)N4CCCCC4)ccc23)cc1 | inactive: 86%
Cc1cc(C)c2c(=O)cc(C(=O)Nc3ccc(S(=O)(=O)Nc4nc(C)cc(C)n4)cc3)oc2c1 | inactive: 107%
COC(=O)C(C)Sc1nc2c([nH]c3ccccc32)c(=O)n1-c1ccc(OC)cc1 (centres undefined) | inactive: 75%
N#Cc1c(-c2cccs2)cc(-c2cccs2)nc1SCc1cccnc1 | inactive: 104%
O=C(Nc1ccc2nc(SCC(=O)N3CCCC3)sc2c1)c1ccc(F)cc1 | inactive: 87%
CCOc1ccccc1NC(=O)Cn1c(=O)n(Cc2ccccc2)c(=O)c2c(C)c(C(=O)N(C)C)sc21 | inactive: 71%

Compound | survival
CCN(CC)C(=O)CSc1nc2cc3c(cc2c(=O)n1Cc1ccc(C(=O)NCCc2ccc(OC)c(OC)c2)cc1)OCO3 | inactive: 77%
COc1cc(Cl)c(C)cc1NC(=O)c1cn(CC(C)C)c(=O)c2cc(OC)c(OC)cc12 | inactive: 76%
COc1ccc(CNC(=O)CCCn2c(SCC(N)=O)nc3cc4c(cc3c2=O)OCO4)cc1 | inactive: 117%
O=C(NCc1ccncc1)c1c(O)c2ccccc2[nH]c1=O | inactive: 113%
Cc1cc(Nc2cccc(Cl)c2C)n2nc(Cc3ccccc3)nc2n1 | inactive: 81%
CC(NC(=O)c1ccccc1)c1nc2ccccc2n1Cc1ccc(Cl)cc1 (centres undefined) | inactive: 90%
COc1ccc(CNC(=O)c2cnn3c(C)c(Cc4ccc(F)cc4)c(C)nc23)cc1 | inactive: 66%
CC(C)OCCCNC(=O)CCCn1c(SCC(=O)c2ccc(Br)cc2)nc2c(sc3ccccc32)c1=O | inactive: 83%
Cc1cc(C)c(NC(=O)Cn2c(=O)n(CCCCC(=O)NCc3ccccc3Cl)c(=O)c3ccccc32)c(C)c1 | inactive: 106%
COc1cc(CN(CC2CCCO2)C(=O)c2ccccc2F)cc(OC)c1OC (centres undefined) | inactive: 83%
Cc1ccc(Cl)cc1NC(=O)Cn1nc2c(cc1=O)CC(C)CC2 (centres undefined) | inactive: 73%
CCOc1ccc(NC(=O)CN2C(=O)COc3ccc(S(=O)(=O)Nc4ccccc4)cc32)cc1 | inactive: 67%
Cc1ccc(OCCSc2nc3ccccc3n2CC(=O)N2CCOCC2)c(C)c1 | inactive: 107%
COc1ccc(C(=O)Nc2ccc3nc4n(c(=O)c3c2)CCCCC4)cc1OC | inactive: 91%
O=C(NNc1ncnc2c1cnn2-c1ccccc1)c1cccc(Cl)c1 | inactive: 148%
CCC(=O)N1CCc2cc(Br)cc(S(=O)(=O)N3CCC(C(=O)NC(C)(C)C)CC3)c21 | inactive: 86%
COc1ccc(Cl)c(Cn2c(NCCN)nc3c2c(=O)n(C)c(=O)n3C)c1 | inactive: 84%
COc1ccc(C(=O)NCc2nnnn2-c2ccc(C)c(C)c2)cc1 | inactive: 75%
CSc1nc(-c2ccc(Cl)cc2)nn1C(C)=O | inactive: 102%
CC(C)Cn1c(=O)c2ccccc2n2c(-c3cccc(Cl)c3)nnc12 | inactive: 89%
CCc1ccccc1NC(=O)CSc1nnc(-c2nonc2NC(C)=O)n1C | inactive: 85%
Cc1ccnc(NC(c2ccccc2F)c2ccc3cccnc3c2O)c1 (centres undefined) | active: -8%
N#Cc1ccc(-c2cccs2)nc1SCc1ccc(Cl)cc1Cl | inactive: 63%

Compound | survival
CCOc1ccc(NC(=O)N2CCOc3ccccc32)cc1 | inactive: 86%
Cc1ccc(Cl)cc1Nc1nc2ccccc2n2c(C)nnc12 | inactive: 92%
O=C1NC(c2ccccc2)Oc2ccccc21 (centres undefined) | inactive: 103%
CCCOc1ccccc1Cn1c(=O)sc2ccccc21 | active: -5%
CCCCc1nn2c(=O)cc(COC(=O)c3ccccc3NC(=O)C(C)(C)C)nc2s1 | inactive: 117%
Cc1cc(NS(=O)(=O)c2ccc(NC(=O)COc3ccc(Br)cc3C)cc2)no1 | inactive: 65%
CCOC(=O)c1ccc(NC(=O)CN2C(=O)c3cccnc3Oc3ccc(Cl)cc32)cc1 | inactive: 85%
Cc1ccc(N2CCn3c2nc2c3c(=O)n(CCc3ccccc3)c(=O)n2C)cc1C | inactive: 85%
Cc1[nH]c(=O)[nH]c(=O)c1C1N2CC3(C(C)C)CN1CC(C(C)C)(C2)C3=O (centres undefined) | inactive: 86%
Cc1ccc(-n2ncc(C(=O)N3CCN(c4cccc(C)c4)C(C)C3)c2C2CCN(C(=O)OC(C)(C)C)CC2)cc1 (centres undefined) | inactive: 152%
Cc1ccc(CNC(=O)Cn2nc(C)n3cccc3c2=O)cc1 | inactive: 90%
O=C(O)CCn1nnc(-c2cccs2)n1 | inactive: 101%
O=C(NCc1ccc(Cl)cc1)c1cc(S(=O)(=O)N2CCCCC2)c[nH]1 | inactive: 102%
CCOc1ccc2nc(NC(=O)c3cc(=O)c4ccc(C)cc4o3)sc2c1 | inactive: 52%
CCN1CCSc2ccc(C(=O)NC(C)c3ccccc3)cc21 (centres undefined) | inactive: 89%
Cc1cc(C)cc(C(=O)Nc2ccc(-c3nc4ncccc4o3)cc2)c1 | inactive: 80%
Cc1c2cnn(CC(=O)N3CCN(c4ccc(F)cc4)CC3)c(=O)c2c(C)n1Cc1ccc(F)cc1 | inactive: 92%
Cc1nn(CCCC(=O)NCc2ccc(F)cc2)c(=O)c2c1sc1ccccc12 | inactive: 87%
CCOc1ccc(N2CC(c3nc4ccccc4n3Cc3cccc(Cl)c3)CC2=O)cc1 (centres undefined) | inactive: 51%
COc1c(C)cc(S(=O)(=O)NCCc2c(C)[nH]c3ccccc23)c(C)c1C | inactive: 105%
